# Measurements from PubChem BioAssay AID1508624 (National Center for Advancing Translational Sciences (NCATS), 2021).
# Hit rate of the full screen: of about 48,000 compounds, about 120 (0.25%) were called active. About 4% were inconclusive and are not listed. Calls follow the shape of the dose curve; as a rule, active = well fitted activation curve with a large enough effect; inconclusive = small, poorly fitted or top-dose-only effect, or another doubt; inactive = no such curve, though single readings can be large or run the other way. The entries are a selection whose mix differs from that of the whole data set. Where no call is shown, the source filed none.
# Assay: Primary qHTS for Identification of Small Molecule Activators of Huntingtin-Antisense Promoter Activity; also: nearly all actives have a fitted effect of over 55% in size
# Details: HEK293 HTT-AS promoter firefly luciferase reporter, 24 h; activity change, positive = activation: at 57.5 µM (top of the series), percent change from vehicle, -100% = no light
# Summary of the method: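 Firefly luciferase readout (Dual-Glo, 10 min RT) after 24 h, 37 °C compound exposure (final up to 57.5 uM) of HEK293 reporter cells cultured 24 h beforehand; PTC124 at 50 uM final as control inhibitor; activity scaled vehicle 0%, zero RLU -100%.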
# Potency is read from the fitted curve at half-maximal effect.
Structure (SMILES),"activity change, positive = activation",Potency
Cc1cc(=O)n2c(C(=O)Nc3ccc(F)c(Cl)c3)c(C(=O)Nc3cccc(C)c3C)sc2n1,-6.99%,
COc1cc(OC)cc(C(=O)Nc2ccc3oc(-c4ccc(Cl)cc4)nc3c2)c1,10.3%,
CCc1cccc(CC)c1NC(=O)c1c(C)oc2ccc(O)c(CN3CCOCC3)c12,-3.77%,
COc1nc(Oc2ccc(=O)n(-c3ccccc3)n2)nc(N(C)C)n1,-0.0665%,
COc1cc(C2C(=O)N(C3CCC(C)CC3)CC(=O)N2CCc2ccc(Cl)cc2)ccc1OC(C)C (stereo unspecified),-2.39%,
CCc1nn(CC(=O)NCCCc2ccccc2)c(=O)c2cc3cc(F)ccc3n12,-4.78%,
Cc1ccc(NC(=O)CC(c2ccc(F)cc2)N2Cc3ccccc3C2=O)cc1C (stereo unspecified),-10.4%,
Cc1ccc(-c2nn(CCC(N)=O)c(=O)c3ccccc23)cc1,2.44%,
COc1ccc2c(C)c(CCC(=O)NCc3ccccc3Cl)c(=O)oc2c1C,-6.07%,
O=C(Nc1ccc(OC(F)(F)F)cc1)c1noc2c1CCCC2,,active: 1120 nM
COC(=O)c1ccc(NC(=O)CC2C(=O)N(c3cccc(OC)c3)C(=O)N2C(C)C)cc1 (stereo unspecified),-1.07%,
Cc1cc(NC(=O)c2cc(-c3cccc(Cl)c3)on2)n(-c2ccccc2)n1,-3.72%,
CCOC(=O)c1c(NC(=O)CCCOc2ccccc2C)sc2c1CCC(C)C2 (stereo unspecified),-2.26%,
COc1ccccc1OCCSc1nc(-c2ccc(C(C)(C)C)cc2)nc2cc(=O)[nH]n12,-1.3%,
Nc1nnc(SCC(=O)Nc2ccc(Cl)cc2)s1,inactive: 16.4%,
Cc1ccc(CCNC(=O)c2cc3ccccn3n2)cc1,25.8%,
CCOc1ccc(S(=O)(=O)Nc2cc3c(C(=O)OCc4ccccc4)c(C)oc3c3ccccc23)cc1,-35.2%,
COc1ccc(CNC(=O)CCc2c(C)nn(-c3ccc(N4CCCC4)nn3)c2C)cc1,-5.75%,
COc1ccc(CCNC(=O)CCc2c(C)c3ccc(O)c(C)c3oc2=O)cc1,-0.379%,
Cc1ccc(NC(=O)C2CCC(CNS(=O)(=O)c3cccs3)CC2)cc1C (stereo unspecified),inactive: -29.3%,
COc1cc(NC(=O)c2ccc(C(=O)Nc3cc(OC)c(Cl)cc3OC)cc2)c(OC)cc1Cl,-1.47%,
CCCN1CCN(CCCNC(=O)Cn2nc(C)n3c(cc4cc(F)ccc43)c2=O)CC1,-1.52%,
Cc1ccc(NC(=O)c2cc(-c3ccc4c(c3)OCO4)on2)cc1,19.2%,
CCc1ccccc1NC(=O)CC(c1ccc(F)cc1)N1Cc2ccccc2C1=O (stereo unspecified),-15.7%,

Structure (SMILES),"activity change, positive = activation",Potency
Cc1ccc(Cl)cc1NC(=O)c1oc2ccc(S(=O)(=O)N3CCC4(CC3)OCCO4)cc2c1C,inactive: -12.6%,
COc1ccc(NC(=O)c2c(C)oc3ccc(O)c(CN4CCN(C)CC4)c23)cc1Cl,-6.43%,
Cc1ccc(-c2nnc(Nc3ccc(C(N)=O)cc3)c3ccccc23)cc1S(=O)(=O)N1CCCCC1,-31.4%,
c1ccc(N2CCN(c3ncnc4c3nc3n4CCCC3)CC2)cc1,inactive: -64.6%,
COc1ccc(CNC(=O)Cc2c(C)c3ccc(O)cc3oc2=O)cc1,4.08%,
COc1cccc(C(=O)Nc2nc(-c3nnn(-c4cc(C)ccc4C)c3C)ns2)c1,inactive: -30.7%,
Cc1c(NC(=O)Nc2cccc(C(F)(F)F)c2)sc2nc3n(c(=O)c12)CCC(C)CC3 (stereo unspecified),3.01%,
CCOc1cc(C(=O)Nc2cccc(-c3nc4ccccc4o3)c2)cc(OCC)c1OCC,-0.398%,
COc1ccc(OC)c(-c2cc(C(=O)Nc3cccc(Cl)c3C)no2)c1,-10.2%,
CCc1ccc(NC(=O)c2ccc(F)c(S(=O)(=O)N3CCC(C)CC3)c2)cc1,inactive: -35.9%,
CCCCNS(=O)(=O)c1ccc2nc(NC(=O)c3cccnc3)sc2c1,inactive: -24%,
CCc1nn2c(=O)c(S(=O)(=O)Nc3ccc(OC)c(Cl)c3)c(C)nc2s1,-30.8%,
Cc1ccc(CSCCNC(=O)C2CCN(S(=O)(=O)Cc3ccccc3)CC2)cc1,-9.32%,
Cc1ccc(Cn2c(CO)cnc2SCC(=O)NCc2ccccc2Cl)cc1,0.31%,
CCCCCOc1ccccc1CN1C(=O)C(=O)c2cc(C)ccc21,inactive: -37.9%,
COc1ccc(NC(=O)c2c(NCc3ccc(OC)c(OC)c3OC)sc3c2CCC3)c(OC)c1,inactive: -13.1%,
Cn1c(=O)n(C)c2cc(N3CCOCC3)c(NC(=O)c3ccc(C(C)(C)C)cc3)cc21,0.471%,
Cc1cccn2c(=O)c3cc(C#N)c(=O)n(-c4nnc(SCc5ccc(F)cc5)s4)c3nc12,inactive: -4.47%,
Fc1ccc(C(NCCc2ccc(Cl)cc2)c2nnc(-c3ccccc3Cl)o2)cc1 (stereo unspecified),-18.5%,
COc1ccc(S(=O)(=O)N2CCC(n3c(C)nc4cccnc43)CC2)cc1Cl,-31.3%,
COc1ccc(CNC(=O)c2cnn(-c3ccccc3)c2-n2cccc2)cc1OC,-27.2%,
COc1cccc2c(NCc3ccccc3)nc(-n3c(N)nc4ccccc43)nc12,inactive: -4.26%,
CC(=O)c1ccc(NC(=O)Nc2sc3nc4n(c(=O)c3c2C)CCC(C)CC4)cc1 (stereo unspecified),2.98%,
Clc1ccc(CCNC(c2ccc(Cl)cc2)c2nnc(-c3ccccc3)o2)cc1 (stereo unspecified),-7.7%,

Structure (SMILES),"activity change, positive = activation",Potency
CCc1cccc(CC)c1NC(=O)c1c(C)oc2ccc(O)c(CN3CCCC3)c12,-9.52%,
Cc1ccnc(NS(=O)(=O)c2ccc(NC(=O)c3ccc(C)c(C)c3)cc2)n1,12.9%,
COC(=O)c1c(NC(=O)C2c3ccccc3Oc3ccccc32)sc2c1CCC(C(C)(C)C)C2 (stereo unspecified),-11.9%,
COc1cccc(-c2cc(C(=O)NCc3ccc(F)cc3)no2)c1,-2.7%,
O=C1C(=O)N(C2CCN(C(=O)c3cccc(Cl)c3)CC2)CCN1Cc1ccc(F)cc1,0.788%,
COc1ccccc1N1CCN(C(=O)c2cc(CC(C)C)on2)CC1,4.17%,
CCOc1ccccc1CNC(=O)CCc1c(C)nn(-c2ccc(N3CCCC3)nn2)c1C,-12.3%,
CCOC(=O)c1c(C)[nH]c(C)c1S(=O)(=O)N1CCC(C(=O)Nc2cc(C)ccn2)CC1,inactive: 2.74%,
CCc1nn(CC(=O)NCc2ccco2)c(=O)c2cc3c(OC)cccc3n12,-5.6%,
COc1cc(NC(=O)C2CCN(S(=O)(=O)Cc3ccccc3)CC2)c(OC)cc1Cl,0.759%,
O=C(NCc1ccccc1)C(=O)NCC(c1ccco1)S(=O)(=O)c1ccc(Cl)cc1 (stereo unspecified),inactive: -27.8%,
COc1cc(OC)cc(C(=O)Nc2cc3c(cc2N2CCOCC2)n(C)c(=O)n3C)c1,4.79%,
CC1CCN(c2nn3c(=O)c(C(=O)NC(C)C)cnc3s2)CC1,6.54%,
COc1cccc(CNS(=O)(=O)c2ccc3c(c2)C(C(C)C)C(=O)N3)c1 (stereo unspecified),inactive: -26.1%,
Cc1ccn2c(Nc3ccc(C(C)C)cc3)c(-c3cccnc3)nc2c1,inactive: -23.7%,
Cc1ccc(S(=O)(=O)Nc2cc3c(cc2N2CCOCC2)n(C)c(=O)n3C)cc1,-0.0066%,
Cc1oc2ccc(O)c(CN3CCOCC3)c2c1C(=O)Nc1ccc(C(C)C)cc1,-20.8%,
CC(=O)N1c2ccccc2CC1C(=O)N1CCN(c2cccc(C)c2C)CC1 (stereo unspecified),inactive: -15.8%,
COc1cccc(CNS(=O)(=O)c2c(C)nc3scc(C)n3c2=O)c1,-0.9%,
COc1ccc2c(c1)cc1c(=O)n(CC(=O)NCCc3ccccc3)nc(C)n12,-3.28%,
Cc1ccc2nc(N3CCN(c4ccccc4F)CC3)c3nnnn3c2c1,-8.65%,
Cc1cccc(NS(=O)(=O)c2ccc3nc(-c4ccccc4)[nH]c3c2)c1C,inactive: -34%,
COc1ccc(CNC(=O)CCc2c(C)c3cc4c(C)coc4cc3oc2=O)cc1,-6.89%,
CSc1ccc(CNC(=O)CCc2c(C)nn(-c3ccc(N4CCCC4)nn3)c2C)cc1,-7.94%,

Structure (SMILES),"activity change, positive = activation",Potency
O=S(=O)(Nc1ccc(-c2ccc(N3CCCC3)nn2)cc1)c1cc(F)ccc1F,6.97%,
COC(=O)CN1C(=O)CSc2ccc(S(=O)(=O)Nc3cccc(Cl)c3C)cc21,-30.1%,
COC(=O)c1ccc(Cl)c(NC(=O)C2CCN(S(=O)(=O)Cc3ccccc3)CC2)c1,-11.1%,
COc1ccc(Nc2nc(N)nc(CSc3nc4cc(OC)ccc4s3)n2)cc1,-33.6%,
O=C(Nc1cccc(Br)c1)c1cccc(S(=O)(=O)N2CCCCCC2)c1,inactive: -29.7%,
COc1ccccc1C1C=C(c2ccc(Cl)cc2)Nc2nc(-c3ccc(Cl)cc3)nn21 (stereo unspecified),inactive: -64.2%,
CCOC(=O)c1c(-c2ccccc2)oc2ccc(NS(=O)(=O)c3ccc(C(C)C)cc3)cc12,-15%,
Cc1ccc(S(=O)(=O)Nc2cc(Cl)c3oc4c(c3c2)C(=O)CC(C)(C)C4)cc1,-10.2%,
O=C(Nc1ccccc1C(F)(F)F)c1noc2c1CCCCC2,1.26%,
CC(=O)c1c(C)oc2ccc(NS(=O)(=O)c3ccc(C(C)C)cc3)cc12,-33%,
COc1cccc(-c2cc(C(=O)Nc3ccc4c(c3)OCO4)no2)c1,12.9%,
CN(C)S(=O)(=O)N1CCC(n2cnc3cccnc32)CC1,3.86%,
COC(=O)Cc1c(C)c2cc3c(c(C)c2oc1=O)OCN(CCc1ccc(F)cc1)C3,-21.9%,
O=C(COc1ccc2oc3c(c2c1)CCCC3)Nc1ccc(Cl)cc1,inactive: -28.1%,
COc1ccc(C)cc1S(=O)(=O)Nc1cccc(-c2ccc(N3CCC(C)CC3)nn2)c1,24.9%,
CCCCOc1ccc(S(=O)(=O)Nc2ccc(-c3ccc(N4CCCCC4)nn3)cc2)cc1,1.26%,
Cc1cc(C)cc(NC(c2cccc(Cl)c2)c2nnc(-c3ccccc3)o2)c1 (stereo unspecified),-15%,
Cc1cc(C)c(S(=O)(=O)Nc2ccc(-c3ccc(N4CCCCC4)nn3)cc2)c(C)c1,32.3%,
CC(C)(O)CC(=O)NCCn1ccc2ncnc(Nc3ccc(Oc4cccc(C(F)(F)F)c4)c(Cl)c3)c21,inactive: -9.03%,
COc1ccc(C2C(=O)N(C3CCC(C)CC3)CC(=O)N2C2CCCCC2)cc1OC (stereo unspecified),-4.14%,
COC(=O)c1cc2oc3ccccc3c2n1CC(=O)Nc1ccc(OC)c(OC)c1,2.47%,
CCOc1ccc(C2C(=O)N(C3CCCCCC3)CC(=O)N2CCC2=CCCCC2)cc1OC (stereo unspecified),-27.6%,
Cc1ccccc1OCCCn1c(-c2ccc(Cl)cc2)nc2ccccc2c1=O,-9.3%,
COc1ccc(OC)c(NC(=O)CCc2c(C)nn(-c3ccc(N4CCCC4)nn3)c2C)c1,3.82%,
